Whole data set: some 33,000 sequences, median “E-score (-0.5 to 0.5)” near -0.054, cut for the highest 2% near 0.39. The list shows a part of the results.
These sequences were tested against Ylr278c (UniProt Q05854) (assay: PBM E-score (8-mer binding enrichment) (E-score (-0.5 to 0.5)); higher = stronger / more preferred TF binding; most listed sequences are background and not binding sites). Conditions: protein concentration: 200 nM; construct: GST-DNA-binding domain.
Method in brief: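 Masliner-normalised scans of fluorescent anti-GST signal were the basis for scoring. That signal came from GST-tagged yeast transcription factors applied at about 100-200 nM to double-stranded universal all-10-mer Agilent arrays on fresh or once-stripped slides. Each ungapped eight-base word, pooled with its reverse complement, received an E-score from the Universal PBM Analysis Suite.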

Sequence | PBM E-score
CTCCAGAC | -0.092
GGGACAAA | 0.0323
TAGGTTAA | -0.0815
CAACCGCC | 0.0973
CTTATGTC | 0.00842
TCCGTTAA | 0.324
AAGCGCTT | 0.178
CCGTATAC | 0.0174
CCGAGACA | 0.153
ATCCGGTG | 0.408
CATGGCCC | 0.0406
CTATAGCC | -0.192
CGGTGCAC | 0.0386
ACTATTCA | -0.08
AGAGCTAC | -0.107
ATTCAGAA | -0.1
CGGCACTC | 0.227
CCGAAGGA | 0.221
CACGATCC | 0.00826
AGGGGCCC | -0.0472
GCACAAGC | -0.0871
CTAATTAG | -0.0975
TGATAGCA | -0.105
CTGTCCGC | 0.14
AAATGATA | 0.00643

Sequence | PBM E-score
ATGTAAAT | -0.0474
GACTTTCA | 0.0465
GACAACCC | 0.0814
AGCGGATG | 0.143
ATACACGG | -0.0179
ACAACCTA | -0.131
ACATGGCC | 0.0292
TTGACCAA | -0.221
CGAAGGAG | -0.00744
ACGAGTCG | -0.159
CGTAACAA | -0.0654
ATAAACTA | -0.0104
GAGAGACC | -0.15
ACTCGAAA | -0.108
ACGTCCGC | 0.299
TACATCTA | -0.0853
ACAACCGT | -0.251
GTCTCTGA | -0.165
CGCTTTAA | -0.0356
AATGTCAC | -0.168
ATTCTGTC | -0.0952
ACATAGCT | -0.22
GTTGTCAA | -0.148
GGAATACC | 0.286
AGAAAACC | -0.0761

Sequence | PBM E-score
GCTATTAA | -0.0985
CCCGGTCA | 0.259
GCACATGA | -0.191
TCACTTAA | -0.159
ACCATTAG | 0.0698
GTAATACA | -0.119
ATATTGAC | -0.0751
AAGCCCCT | 0.00156
CGACGTTA | 0.0873
ACTACGGC | 0.132
CAAGCGGC | 0.144
GACGCGGC | 0.079
ACTTGACA | -0.224
CTCTTTAC | -0.084
TCCCGAAA | 0.238
AATCGCCA | -0.132
AGTGGTAT | -0.175
TCAAGGAA | -0.142
AAGAGTGC | -0.17
ACAAGTAT | -0.035
AATTTGGT | -0.0243
ATGCTCCG | 0.425
ACCACCCA | -0.0952
AGACTTAC | -0.224
AATGGATG | -0.226

Sequence | PBM E-score
ACAGGTAA | -0.102
ACACAACA | -0.02
AATGTTTC | -0.00717
GTTCTGGA | -0.278
CTTCCCAA | -0.107
GATATAAC | -0.0237
GTGGGGGA | -0.225
ATCACCCG | 0.191
CGATTGGC | -0.0423
CTCGTCCC | -0.00145
CTCCAGCC | -0.0584
ATTATTTG | -0.04
ACCTTTCG | 0.0202
GAGTCCGA | 0.392
GCCTAAGA | -0.216
GTGACTAA | -0.0851
ACCCACGA | -0.121
GAGGCTGA | -0.299
ATATCTCA | 0.0231
GGCGAGTA | 0.0246
TACGAGTA | -0.0577
AAGTAAGC | -0.101
CCGAGGTC | 0.298
TCTCCTCA | -0.147
GGAGTCTA | -0.00849

Sequence | PBM E-score
ATCCTTAA | -0.336
CCGTCGAA | 0.118
AAATATTA | 0.0467
ACGAGGTA | -0.047
ATCAATCC | 0.0383
CATATTTC | 0.0331
CCGATTGC | 0.271
CGTTCCCA | -0.229
CAACAATG | -0.0382
CCCCATAG | -0.0583
GTGGACAC | -0.0491
ATAGTCCA | -0.109
AGCATCAG | -0.15
CTATAGGC | -0.116
CTTGAAAG | -0.221
CCACCGAG | -0.0139
GCGCGAGC | 0.113
ACACTATG | -0.147
ACTTGTAT | -0.19
GGGCAACC | -0.076
AGCTCAAG | -0.341
CCGCAAAC | 0.247
TACCCAAA | -0.088
GGGGTGAC | -0.0399
CTGAGTTC | 0.0225

Sequence | PBM E-score
CTCACTCC | 0.205
GCACGCGA | 0.0479
CTAAGTCC | 0.161
CAGAACGC | 0.0352
GAACCCGA | 0.146
GCACTACC | -0.0883
AGGTAACA | -0.0992
GAATGAAC | -0.0135
GCAATCCC | 0.316
AAGCAGCG | -0.0544
ACAGTCGA | -0.289
AAAAGAAA | -0.0701
CTGTTCTC | 0.0566
CGCGAACC | 0.24
AAGTTTTC | 0.0117
CGACAAAG | 0.0949
ATTCCTGC | 0.0732
CCCTCGGC | 0.207
GAGTCTCC | 0.291
CAAATCTA | -0.174
GCAAACAC | -0.128
ACGCAAAG | -0.0959
AAAGTCCT | 0.226
GTGTCTAA | -0.383
ACGACTTG | -0.229

Sequence | PBM E-score
CATGAAGA | -0.185
AAGGGAGT | -0.314
GTCCTATA | -0.183
AGACGAAG | -0.0807
CGACGATA | -0.033
AAATGCAA | -0.269
AACGTGGA | -0.238
AGTTCTGA | -0.201
CGCGTATC | 0.144
AGGTAATC | 0.082
ATTCCGGG | 0.443
AAAGGGCA | -0.178
ATAAGACA | -0.183
CAACTTCA | -0.217
TGGGAACA | -0.124
CTGCTTAC | -0.149
AGCCCACG | -0.0945
ACAACAGC | -0.175
CGAGAGAG | 0.067
GGCGGCCC | 0.13
AACATTCA | 0.00265
GTCGTTGA | -0.225
CCATTAGG | -0.305
CGAACGAG | -0.101
AATACGAC | -0.195

Sequence | PBM E-score
AGCGGCTC | 0.165
AATCTGGA | -0.0162
GGCCATAA | -0.0554
CCGGATAC | 0.384
AATACATC | 0.128
ACTTACTA | -0.18
CTTTCTAA | -0.155
ATACCCCA | 0.00063
AGGATCAA | 0.0948
ATAATCTG | -0.214
AAATCCCT | -0.0491
ACCCCACC | 0.259
CAAGATCA | -0.212
CGACTCAG | -0.0452
GCAAGGTA | -0.231
CAGCCCCA | -0.101
CCTATGAA | -0.205
GGATACAA | -0.00253
TGGGGACA | -0.14
GAGTCTCA | -0.115
AGACATTA | -0.0914
CAAAGGCG | -0.146
ATTGTGAA | -0.17
CCTTAAAC | -0.173
CGGACCGA | 0.409

Sequence | PBM E-score
ACCTCACA | -0.0167
CACCGCGG | 0.294
ACCTCGAG | 0.00411
CATTATTA | 0.0225
CCCTGGAA | -0.149
AGCACGGA | 0.211
ACACACCC | 0.0283
TGGATAAA | 0.0471
ACGTATCC | -0.0765
CGTTGTCC | 0.159
CCCGGGAC | 0.394
TCACAAAA | 0.147
CTTGTGTC | -0.174
CCTGCCGA | 0.0781
TCCATAGA | -0.0419
GTACACTA | -0.223
CTATGGCC | -0.12
CCCGAGGC | 0.14
ATGCCAAG | -0.154
CCAACTCG | -0.149
ACGGGTTA | -0.0173
TAGTGTGA | -0.285
AGTCGCGA | 0.0519
AGCTATCC | 0.0371
ACAAATGG | -0.122

Sequence | PBM E-score
CTGTACTA | -0.129
CTACACGC | -0.235
AAGTTACA | -0.173
GATTAAAA | 0.0412
CACATGGC | -0.156
AGAAGACC | 0.0375
AGGTTCAT | -0.151
CGTAACTC | 0.0375
CATACCAC | -0.0683
CCGCGTGC | 0.164
CATACACA | -0.29
AATTAAAA | -0.084
ATTCCCGA | 0.338
ACGTTTAC | -0.157
TGTTTTAA | -0.0312
CGAATGGA | -0.121
AATGAATG | 0.0714
AGACTCAA | -0.227
CTAAAACA | -0.0571
CCTCGGTC | -0.0689
CATTAGAG | -0.183
CTTAGAAC | -0.0645
CATCCGGA | 0.436
ACCCACCA | -0.0109
ATGTCGAA | -0.0534

Sequence | PBM E-score
GGGGCGGA | 0.412
TACACTCA | -0.121
AGTAGTCC | 0.154
CTCTAGTA | -0.0247
AATTCTTC | 0.105
ACCACGAT | -0.249
GCTCGTGA | 0.0305
CTCTAACA | -0.269
AAGTGGCG | -0.0285
CATTCTGG | -0.108
CTGAAGGA | -0.204
CATTACAC | -0.143
GGTTCTAA | 0.0848
CGATATGC | 0.0231
CCTCTTTC | -0.0384
GTCCACCA | 0.00454
CAGTTTGG | -0.253
GCGTGAGC | 0.089
ATCCACCG | 0.139
CCCTTGAA | -0.0298
ACCGCTAT | 0.109
TAAGGAGA | -0.0918
ATTTGTGC | -0.0582
CCACCTGG | -0.207
ATGTTTCG | 0.0356

Sequence | PBM E-score
CGTGGTAA | -0.231
GCAATGCA | -0.168
AGAGCCTG | -0.374
ACTGGTTG | 0.059
AGTCAGAC | -0.0921
GAAAATGC | -0.0064
AGCCGATC | 0.144
CAGATACC | -0.0274
CCTATCAG | -0.242
ATCAACGG | 0.139
TCTAAGAA | -0.0197
ACAATTAC | -0.197
AGACCGCG | 0.105
ACTCGTAG | -0.123
GCCAGCGC | -0.0552
AACCCCTA | -0.103
AGAGATAG | -0.0754
GCCGGGCA | 0.304
ATACTTGA | -0.345
ACTTTGGG | -0.0123
AAGGTACG | -0.0771
CAGACTGC | -0.226
GTGAATGA | 0.0235
ACCCTTTA | -0.0529
ACGGCAAA | 0.203

Sequence | PBM E-score
AGCCCCCC | -0.285
CAATATCG | 0.0834
ATTATAAG | -0.0477
GCTTAGGA | -0.105
CCATTACA | -0.027
CGGAGCCA | 0.402
GAGGGCAC | -0.214
CCTATGCG | -0.0142
AACCGTCG | 0.0961
ATCCCGCA | 0.152
CATCGTGC | -0.217
AAAAGCGA | 0.103
GTCCTTGA | -0.223
CGCAGAGC | -0.0693
CTAACTGC | -0.033
AACCCCCC | -0.249
ATGCCCCC | -0.143
GCATCTTA | -0.122
ACCTACAG | -0.0218
CTCCGTGA | 0.425
CCAATTAC | 0.0104
AATGGTAG | -0.111
GACCACAA | 0.0467
GTCGCTGA | -0.11
CATCAAGG | -0.301

Sequence | PBM E-score
GTACTAAC | -0.0507
ACATACAG | -0.118
GAGACTAC | 0.0263
CCGAAAAC | 0.344
AAGACTGA | -0.224
AAATGCTG | -0.133
AGCGATGG | 0.0514
CTGGCCGC | -0.0564
CTCAGTAA | -0.0944
GAATAAGA | 0.0588
CTTGGTGA | -0.0321
AATTAAGC | 0.092
CCTGAGTA | -0.136
CCGGAAGG | 0.387
AACTATGC | 0.0447
CTTTAACC | -0.144
ACGTTGAG | -0.111
AAGCCAAA | -0.0886
CATAGCCC | -0.19

From the supplement of paper PMC3334620
